{
  "source": "the supplement of paper PMC10126150",
  "note": "Values marked as one replicate rest on one cluster of the flow cell; about a third of the high ones do not repeat.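 Also: ATP exposure 15 min at 22 °C before imaging.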",
  "data": [
    {"test_system": "ATP", "test": "switch fluorescence ratio, 500 uM ATP over buffer (Cy3 cluster intensity, sum of 5 cycles each) (fold (ratio)); higher = stronger signal-on switching upon ATP binding; sequences stand for … in TCGTCGGCAGCGTCAGATGTGTATAAGAGACAGTTTTTTTTTTTTTTTTTTTTTTTTT…TC", "details": "aptamer strand: ATP DNA aptamer (quencher-CACCTGGGGGAGTATTGCGGAGGAAGG + anchor), 100 nM annealed; ATP concentration: 500 uM; one replicate", "procedure,_shortened": "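Imaging in selection buffer was followed by imaging after 15 min with 500 uM ATP at 22 °C, for Cy3-labelled switching-strand clusters annealed to 100 nM quencher-labelled ATP aptamer on a modified Illumina MiSeq flow-cell. Five of these buffer/ATP cycles ran, separated by NaOH stripping and re-annealing. The fluorescence ratio per cluster is summed target-cycle over summed buffer-cycle Cy3 intensity, averaged per switch-domain sequence; clusters outside 100-1000 RFU were removed.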", "values": [
      {"sequence": "GACTCTTATT", "switch fluorescence ratio": 0.998},
      {"sequence": "GCTCGCTGCG", "switch fluorescence ratio": 0.981},
      {"sequence": "GACAGCGAAT", "switch fluorescence ratio": 1.13},
      {"sequence": "AAGAGACTAA", "switch fluorescence ratio": 1.01},
      {"sequence": "ATTTTAGAGA", "switch fluorescence ratio": 0.991},
      {"sequence": "AGGCTAGGGA", "switch fluorescence ratio": 0.954},
      {"sequence": "CCAGTTAACT", "switch fluorescence ratio": 0.997},
      {"sequence": "GAAGGACGTC", "switch fluorescence ratio": 1.04},
      {"sequence": "CGGTCCTTTG", "switch fluorescence ratio": 1.01},
      {"sequence": "GTTCATGTAT", "switch fluorescence ratio": 0.978},
      {"sequence": "ACAGTTCGCA", "switch fluorescence ratio": 1.05},
      {"sequence": "GGCCAGGGCT", "switch fluorescence ratio": 1.03},
      {"sequence": "GCCTTGAATC", "switch fluorescence ratio": 0.979},
      {"sequence": "GAGTGCCATC", "switch fluorescence ratio": 0.97},
      {"sequence": "AAGGTCATTC", "switch fluorescence ratio": 0.984},
      {"sequence": "CTGCTTGCCT", "switch fluorescence ratio": 1.02},
      {"sequence": "AGTATCGTGG", "switch fluorescence ratio": 0.998},
      {"sequence": "CTAAGATCGT", "switch fluorescence ratio": 0.978},
      {"sequence": "ATCGCAGGAA", "switch fluorescence ratio": 1.14},
      {"sequence": "CCCCGTCTTA", "switch fluorescence ratio": 1.12},
      {"sequence": "GATACGTCCA", "switch fluorescence ratio": 1},
      {"sequence": "GGGCACTGCA", "switch fluorescence ratio": 1.01},
      {"sequence": "AAACCCCGCA", "switch fluorescence ratio": 4.34},
      {"sequence": "TTACGAGCTT", "switch fluorescence ratio": 1.05},
      {"sequence": "TGCTGGTAGG", "switch fluorescence ratio": 1.04},
      {"sequence": "GAGATTACT", "switch fluorescence ratio": 0.99},
      {"sequence": "TGGCCAATAT", "switch fluorescence ratio": 1.03},
      {"sequence": "TATGGTGGGA", "switch fluorescence ratio": 0.985},
      {"sequence": "CGCGCCTGAA", "switch fluorescence ratio": 1.02},
      {"sequence": "ACCGCTAAT", "switch fluorescence ratio": 2.05},
      {"sequence": "CTCCATAATT", "switch fluorescence ratio": 2.38},
      {"sequence": "CCTCGCGCCT", "switch fluorescence ratio": 3.95},
      {"sequence": "TCATTATGGT", "switch fluorescence ratio": 1.02},
      {"sequence": "CGTTGTA", "switch fluorescence ratio": 0.996},
      {"sequence": "TCTGTTTTTA", "switch fluorescence ratio": 1},
      {"sequence": "GTTCGGCTGG", "switch fluorescence ratio": 1.02},
      {"sequence": "CTAGGAAATA", "switch fluorescence ratio": 0.983},
      {"sequence": "CCAACGTCCA", "switch fluorescence ratio": 1.36},
      {"sequence": "CTTACGCC", "switch fluorescence ratio": 1.06},
      {"sequence": "TCTCTTCAAT", "switch fluorescence ratio": 1.41},
      {"sequence": "CGGTTGGCTC", "switch fluorescence ratio": 0.947},
      {"sequence": "CTGATTCGGC", "switch fluorescence ratio": 1.02},
      {"sequence": "TTGTGGCCGA", "switch fluorescence ratio": 0.978},
      {"sequence": "CACGCTCTGG", "switch fluorescence ratio": 1.08},
      {"sequence": "TTTAGAGCCT", "switch fluorescence ratio": 1.01},
      {"sequence": "CGCATTTCGG", "switch fluorescence ratio": 1.08},
      {"sequence": "ATCGCGCCGA", "switch fluorescence ratio": 1.01},
      {"sequence": "GGCTCTAGTC", "switch fluorescence ratio": 0.989},
      {"sequence": "AACTGGTCG", "switch fluorescence ratio": 1.04},
      {"sequence": "TCGCTGAGTT", "switch fluorescence ratio": 1.03},
      {"sequence": "GCTGGGTGGC", "switch fluorescence ratio": 0.939},
      {"sequence": "AGTCCTGGAT", "switch fluorescence ratio": 0.989},
      {"sequence": "TGGGCGGGAA", "switch fluorescence ratio": 1.01},
      {"sequence": "ATGTCGCGTG", "switch fluorescence ratio": 0.987},
      {"sequence": "TGAGGGTGG", "switch fluorescence ratio": 1},
      {"sequence": "ATGGCTCCGT", "switch fluorescence ratio": 0.99},
      {"sequence": "CAGGAAAGGC", "switch fluorescence ratio": 0.965},
      {"sequence": "AGTCACAGTT", "switch fluorescence ratio": 1.07},
      {"sequence": "CCACAGGTCG", "switch fluorescence ratio": 2.1},
      {"sequence": "GACTATTGAC", "switch fluorescence ratio": 1.07},
      {"sequence": "GCTCGGAAGC", "switch fluorescence ratio": 1.04},
      {"sequence": "AGGAAACTAT", "switch fluorescence ratio": 1.04},
      {"sequence": "TTACGAGTTC", "switch fluorescence ratio": 1},
      {"sequence": "TCTGTACACC", "switch fluorescence ratio": 1.06},
      {"sequence": "TGCACGAGGG", "switch fluorescence ratio": 0.996},
      {"sequence": "CATGTTATCT", "switch fluorescence ratio": 1.02},
      {"sequence": "CCATCAGTCT", "switch fluorescence ratio": 1.03},
      {"sequence": "GGTTGTCGT", "switch fluorescence ratio": 1.09},
      {"sequence": "TAATATCGTT", "switch fluorescence ratio": 0.999},
      {"sequence": "ATCGACATAC", "switch fluorescence ratio": 1.94},
      {"sequence": "TGTTTTCCGT", "switch fluorescence ratio": 1.02},
      {"sequence": "AATGTATCTG", "switch fluorescence ratio": 0.99},
      {"sequence": "TAACGGCGAT", "switch fluorescence ratio": 0.995},
      {"sequence": "TCAATGCACT", "switch fluorescence ratio": 1.04},
      {"sequence": "TTGATTCAGG", "switch fluorescence ratio": 1.02},
      {"sequence": "CATCACCAGC", "switch fluorescence ratio": 1.08},
      {"sequence": "ACGTAGAAGG", "switch fluorescence ratio": 1.08},
      {"sequence": "CTTGTGTCGC", "switch fluorescence ratio": 1},
      {"sequence": "TCATAGAGCA", "switch fluorescence ratio": 0.975},
      {"sequence": "GATATGTTCG", "switch fluorescence ratio": 1.01},
      {"sequence": "CTGTTAAAA", "switch fluorescence ratio": 1.01},
      {"sequence": "TAACGACTAC", "switch fluorescence ratio": 1.29},
      {"sequence": "TCCCTCCTTT", "switch fluorescence ratio": 1.02},
      {"sequence": "TGACGTTGTT", "switch fluorescence ratio": 0.942},
      {"sequence": "AACGCGTGTG", "switch fluorescence ratio": 1.01},
      {"sequence": "TTGGGTGACG", "switch fluorescence ratio": 0.942},
      {"sequence": "AATGCATGAT", "switch fluorescence ratio": 1.03},
      {"sequence": "TTCGCGTC", "switch fluorescence ratio": 1.01},
      {"sequence": "CGCGGGTGAA", "switch fluorescence ratio": 1},
      {"sequence": "TCAGGGG", "switch fluorescence ratio": 1.15},
      {"sequence": "TTCCGTCTCT", "switch fluorescence ratio": 1.01},
      {"sequence": "TTAAATGACA", "switch fluorescence ratio": 0.989},
      {"sequence": "GGAAAAGTAC", "switch fluorescence ratio": 1.45},
      {"sequence": "GGAGGAGTTG", "switch fluorescence ratio": 0.939},
      {"sequence": "GACTTACTGT", "switch fluorescence ratio": 1.12},
      {"sequence": "GATAACCGAA", "switch fluorescence ratio": 1.04},
      {"sequence": "AGGGAATCAT", "switch fluorescence ratio": 0.988},
      {"sequence": "CAACACATCC", "switch fluorescence ratio": 1.08},
      {"sequence": "AGATAGTAGC", "switch fluorescence ratio": 0.987},
      {"sequence": "TATGCGGAAA", "switch fluorescence ratio": 1.05}
    ]}
  ]
}
